Our source for the cytotoxicity call values is the antibiotic and cytotoxicity screens of Wong et al. (2023).

Some of the results follow.

The subject of the assay is HepG2. In words: cytotoxicity call (relative viability < 0.9). Particulars: 10 µM.
With `COCC#Cc1ccc2c(c1)O[C@@H](CN(C)C(=O)COC)[C@@H](C)CN([C@H](C)CO)S2(=O)=O`, the cytotoxicity call was “inactive”.
As for `NCCN1CCO[C@@H](CC(=O)Nc2cc(Cl)cc(Cl)c2)C1=O`, the cytotoxicity call was “inactive”.
With `Cc1ccc(S[C@]2(C(=O)NCC(F)(F)F)CC(=O)N(Cc3cc(C(F)(F)F)cc(C(F)(F)F)c3)[C@@H]2c2ccc(CO)cc2I)cc1`, the cytotoxicity call is “inactive”.
Under `Cc1ccc(S(=O)(=O)N[C@H]2CC[C@@H](CC(=O)N3CCC(Cc4ccccc4)CC3)O[C@@H]2CO)cc1` stands “inactive”.
Under `O=C(C[C@H]1C[C@H]2c3cc(NS(=O)(=O)c4ccc(F)cc4)ccc3O[C@H]2[C@H](CO)O1)NC1CCCCC1` stands “inactive”; under `C[C@@H]1CCCCO[C@@H](CN(C)S(=O)(=O)c2ccc(F)cc2)[C@H](C)CN([C@H](C)CO)C(=O)c2cc(NC(=O)Nc3ccc(F)cc3)ccc2O1`, “active”.
Under `C[C@H]1CN([C@@H](C)CO)C(=O)Cc2cc(NS(=O)(=O)c3cn(C)cn3)ccc2O[C@@H]1CN(C)Cc1ccccc1` stands “inactive”.
For the compound `C[C@@H]1CCCCO[C@@H](CN(C)Cc2ccc(C(F)(F)F)cc2)[C@@H](C)CN([C@@H](C)CO)C(=O)c2cc(N(C)C)ccc2O1`, the cytotoxicity call was “inactive”.
Under `C[C@H]1CN([C@@H](C)CO)C(=O)c2cccc(NC(=O)c3nc4ccccc4s3)c2O[C@H]1CN(C)Cc1ccc(Oc2ccccc2)cc1` stands “active”; under `C[C@H]1CN([C@@H](C)CO)C(=O)c2c(c3ccccc3n2C)-c2ccccc2CO[C@@H]1CN(C)CC1CCCCC1`, “active”.
In the case of `C[C@H]1CN([C@@H](C)CO)C(=O)c2cc(NC(=O)C3CC3)ccc2O[C@H]1CN(C)S(=O)(=O)c1ccc(Cl)cc1`, the cytotoxicity call was “inactive”.
To `COCCOC(=O)N1C(=O)[C@@]2(c3cc(C#Cc4ccc(OC)cc4)ccc31)[C@H](C(=O)N1CCN(c3ncccn3)CC1)[C@H]1C(=O)O[C@H](c3ccccc3)[C@H](c3ccccc3)N1[C@@H]2c1ccccc1OCCO` belongs “inactive”.
Regarding `C[C@H]1CCCCO[C@@H](CN(C)C(=O)Nc2ccccc2)[C@@H](C)CN([C@@H](C)CO)C(=O)c2cc(NC(=O)CCC(F)(F)F)ccc2O1`, the cytotoxicity call is “inactive”.
Regarding `C[C@H](CO)N1C[C@H](C)[C@H](CN(C)C(=O)Nc2ccc(N3CCN(C)CC3)cc2)OCc2cnnn2CCCC1=O`, the cytotoxicity call was “inactive”.
For the compound `C[C@H](CO)N1C[C@H](C)[C@@H](CN(C)S(=O)(=O)c2ccc(F)cc2)Oc2ccc(NS(=O)(=O)c3ccc(F)cc3)cc2CC1=O`, the cytotoxicity call is “inactive”.
Regarding `COc1ccc2c3c(n(c2c1)C)[C@H](CO)N(C[C@]13CCN(CC1)C(=O)CN(C)C)S(=O)(=O)C`, the cytotoxicity call is “inactive”.
To `COc1ccc(S(=O)(=O)Nc2ccc3c(c2)CC(=O)N([C@@H](C)CO)C[C@H](C)[C@H](CN(C)C(=O)NC(C)C)O3)cc1` belongs “inactive”; to `CN1CCN(C(=O)C[C@H]2CC[C@@H](NC(=O)c3ccc4c(c3)OCO4)[C@@H](CO)O2)CC1`, “inactive”.
Regarding `COc1ccc(S(=O)(=O)Nc2ccc3c(c2)CC(=O)N([C@H](C)CO)C[C@@H](C)[C@@H](CN(C)Cc2ccncc2)O3)cc1`, the cytotoxicity call was “inactive”.
As for `C[C@H](CO)N1C[C@H](C)[C@H](CN(C)Cc2ccc(Oc3ccccc3)cc2)Oc2ccc(NS(=O)(=O)c3ccc(F)cc3)cc2C1=O`, the cytotoxicity call was “inactive”.
Under `N[C@@H](Cc1ccc(O)c(O)c1)C(=O)O` stands “inactive”.
As for `O=C1O[C@@H](c2ccccc2)[C@@H](c2ccccc2)N2[C@@H](c3ccccc3OCCO)[C@]3(C(=O)Nc4ccc(C#CC5(O)CCCCCC5)cc43)[C@@H](C(=O)N3CCCCCCC3)[C@H]12`, the cytotoxicity call was “inactive”.
To `C[C@H]1CN([C@@H](C)CO)C(=O)c2cc(NC(=O)CCN3CCOCC3)ccc2O[C@H]1CN(C)S(=O)(=O)c1ccc(F)cc1` belongs “inactive”.
Under `C[C@@H]1CN([C@H](C)CO)C(=O)c2cc(C#Cc3ccc(F)cc3)cnc2O[C@@H]1CN(C)Cc1ccccn1` stands “inactive”.
Under `O=C(C[C@@H]1CC[C@H]2[C@@H](COC[C@@H](O)CN2C(=O)c2cccnc2)O1)NCC1CC1` stands “inactive”.
Regarding `COc1ccc([Si](C)(C)[C@H]2[C@H](CCO)O[C@@]3(C(=O)N(Cc4cccc(N5C(=O)c6ccccc6Oc6ccccc65)c4)c4ccccc43)[C@@H]2C)cc1`, the cytotoxicity call is “active”.
For `Cc1nc(Cn2cnc3c2c(=O)n(C)c(=O)n3C)no1`, the cytotoxicity call is “inactive”.
Consider `C[C@H](CO)N1C[C@H](C)[C@H](CN(C)S(C)(=O)=O)Oc2ccc(NS(=O)(=O)c3cn(C)cn3)cc2C1=O`, for which the cytotoxicity call is “inactive”.
Consider `C[C@@H]1CN([C@H](C)CO)C(=O)CCCn2cc(nn2)CO[C@H]1CN(C)S(=O)(=O)c1ccc(Oc2ccccc2)nc1`, for which the cytotoxicity call was “inactive”.
To `C[C@@H]1CN([C@H](C)CO)C(=O)c2cc(NC(=O)c3ccccc3)ccc2O[C@@H](C)CCCCO[C@@H]1CN(C)S(=O)(=O)c1ccc(Cl)cc1` belongs “inactive”; to `COc1cccc(NC(=O)N(C)C[C@@H]2Oc3ncc(C#Cc4ccncc4)cc3C(=O)N([C@@H](C)CO)C[C@@H]2C)c1`, “inactive”; to `Cc1c(CN2CCC(Nc3ncnc4sc(CC(F)(F)F)cc34)CC2)ccc2c1cc(C#N)n2Cc1cn[nH]c1`, “active”.
Under `O=C1O[C@@H](c2ccccc2)[C@@H](c2ccccc2)N2[C@@H](c3ccc(O)cc3)[C@]3(C(=O)Nc4ccc(C#CC5=CCCCC5)cc43)[C@@H](C(=O)Nc3nc4ccccc4s3)[C@H]12` stands “inactive”; under `C[C@@H]1CCCCO[C@@H](CN(C)Cc2ccncc2)[C@H](C)CN([C@@H](C)CO)C(=O)c2cc(NC(=O)CCC(F)(F)F)ccc2O1`, “inactive”.
Under `Cn1cnc(CCNC(=O)C[C@@H]2CC[C@@H]3[C@H](COC[C@H](O)CN3C(=O)Nc3ccc(Cl)cc3)O2)c1` stands “inactive”; under `C[C@@H]1CN([C@H](C)CO)C(=O)Cc2cc(NS(=O)(=O)c3cn(C)cn3)ccc2O[C@H]1CN(C)C(=O)Nc1ccccc1`, “inactive”.
For the compound `COC(=O)CCn1ccc(=O)[nH]c1=O`, the cytotoxicity call was “inactive”.
As to `C[C@@H]1CCCCO[C@H](CN(C)Cc2ccc(C(F)(F)F)cc2)[C@H](C)CN([C@H](C)CO)C(=O)c2cc(NC(=O)Nc3ccc(F)cc3)ccc2O1`, the cytotoxicity call was “active”.
Under `COc1ccc(S(=O)(=O)Nc2ccc3c(c2)C(=O)N([C@H](C)CO)C[C@H](C)[C@H](CN(C)C(=O)NC2CCCCC2)OCCCC[C@@H](C)O3)cc1` stands “inactive”.
